From PubChem BioAssay AID248 (DTP/NCI, 2004)
Inconclusive results and toxic doses are left out. A number of entries come with more than one value. They are shown here; other results are not. The source may hold further records. Values that stand side by side repeat one measurement across runs, samples, wells, individuals or studies. What stands in brackets tells the records apart. Letters count within one entry. Signs of the kind (2×) count equal records among those shown.

Tested on: L1210 leukemia ip in BDF1 mice, survival T/C
Test: NCI In Vivo Anticancer Drug Screen. Data for tumor model L1210 Leukemia (intraperitoneal) in B6D2F1 (BDF1) mice
Conditions: higher = longer survival

In the case of `Nc1nc(N)[n+]([O-])c(N)c1NCO`, the T/C (endpoint: mean survival time, dose: 200.0 mg/kg/injection, schedule: Q01DX001 (ip), vehicle: other) is reported as 98 % of control and 161 % of control.
For `O=C1OC2CCCCC2/C1=C/N1CCCCC1` (configuration not stated), the T/C (endpoint: mean survival time, dose: 100.0 mg/kg/injection, schedule: Q04DX002 (ip), vehicle: Klucel (hydroxypropylcellulose) (HPC)) was 88 % of control and 166 % of control.
For `CN(N=O)C(=O)N[C@@H](C=O)[C@@H](O)[C@H](O)[C@H](O)CO`, the T/C (endpoint: mean survival time, dose: 25.0 mg/kg/injection, schedule: Q01DX009 (ip), vehicle: water) was 115 % of control and 153 % of control and the T/C (endpoint: mean survival time, dose: 100.0 mg/kg/injection, schedule: Q01DX009 (ip), vehicle: water) was 95 % of control and 171 % of control.
For `O=C(O)CCCc1ccc(N(CCCl)CCCl)cc1`, the T/C (endpoint: mean survival time, dose: 4.0 mg/kg/injection, schedule: Q08HX027 (ip), vehicle: acetone) was 94 % of control and 165 % of control.
In the case of `CCOC(=O)CCOc1ccccc1N(CCCl)CCCl`, the T/C (endpoint: mean survival time, dose: 5.8 mg/kg/injection, schedule: Q01DX Z (ip), vehicle: methylcellulose (MC)) is reported as 110 % of control and 155 % of control.
With `OCC1OC(n2cncn2)C(O)C1O` (configuration not stated) the T/C (endpoint: mean survival time, dose: 200.0 mg/kg/injection, schedule: Q01DX005 (ip), vehicle: saline) was 110 % of control and 168 % of control.
With `Cn1cnc([N+](=O)[O-])c1Sc1nc(N)nc2nc[nH]c12` the T/C (endpoint: mean survival time, dose: 400.0 mg/kg/injection, schedule: Q01DX001 (ip), vehicle: saline) was 124 % of control and 166 % of control and the T/C (endpoint: median survival time, dose: 5.0 mg/kg/injection, schedule: Q01DX009 (ip), vehicle: saline) was 115 % of control and 168 % of control.
With `CC[C@]12CN3CCc4c([nH]c5ccccc45)[C@@](C(=O)OC)(c4cc5c(cc4OC)N(C)[C@H]4[C@@](O)(C(=O)OC)[C@H](OC(C)=O)[C@]6(CC)C=CCN7CC[C@]54[C@@H]76)CC(C3)[C@H]1O2` (some centres not stated) the T/C (endpoint: mean survival time, dose: 0.75 mg/kg/injection, schedule: Q01DX009 (ip), vehicle: saline) was 169 % of control [sample A] and 106 % of control (2×) [sample B], the T/C (endpoint: mean survival time, dose: 3.0 mg/kg/injection, schedule: Q01DX009 (ip), vehicle: saline) was 168 % of control [sample A] and 111 % of control, 116 % of control [sample B] and the T/C (endpoint: mean survival time, dose: 6.0 mg/kg/injection, schedule: Q01DX009 (ip), vehicle: saline) was 169 % of control [sample A] and 122 % of control (2×) [sample B].
